Assay results taken from PMC6212790.
The other results are listed elsewhere or left out. At the low end of the ranking, values are background and their order means little.

biological target: T1, GST-Rok (full length) (UniProt O34857); experiment: protein binding microarray; conditions: Rok is a gene silencer of Bacillus subtilis; high values mean tight binding; most listed sequences are background and not binding sites; double strand, one strand shown;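 further: rank score from −0.5 (least bound) to 0.5 (best bound)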
T1 sequence: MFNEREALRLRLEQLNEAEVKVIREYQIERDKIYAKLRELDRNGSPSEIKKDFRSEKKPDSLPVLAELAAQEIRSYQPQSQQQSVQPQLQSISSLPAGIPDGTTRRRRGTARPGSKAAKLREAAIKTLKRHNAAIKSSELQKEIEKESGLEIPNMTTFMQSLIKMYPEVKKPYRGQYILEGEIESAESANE

Sequence	binding signal [E-score]
CCACGTAC	-0.0772
ATAAATAC	0.276
AAGTGTAA	0.235
ATACTTTG	0.219
CGAGATAA	0.0171
CTACTGTA	0.343
ACCATGCC	-0.248
AGTTATCA	0.253
GACTAATA	0.225
ACTGAACA	0.0437
CAACCTGG	-0.208
CAGTTTCC	-0.109
GGGGGGAC	-0.358
CAATAGTG	0.287
CCGGGACA	-0.126
CGAGGTAC	-0.0944
AAACATCC	0.118
ACCTCCTA	-0.019
AATAGCCG	-0.0965
ATACTTCG	0.18
CGGAGTAC	-0.00494
CTGTGGCC	-0.193
ACTACTGC	0.0824
GGTTGCTA	0.142
CGCGTATC	0.15

Sequence	binding signal [E-score]
ATGAGTGA	0.0309
ATGTCGTA	0.203
ACCGTAGA	0.164
CCACAACC	-0.0954
CCGCTATA	0.145
AGCCAGTC	-0.219
CTATCCGC	0.0972
AAAAAAAT	0.119
CGATCGAA	0.257
AACTGACC	0.114
GTGAGCAA	0.00173
AGCTTGAT	0.00692
CATGCCTA	-0.0265
AGGTACCT	0.202
GAGTGTCC	-0.124
AGCCTGTA	-0.0814
CCATATGC	-0.00822
TGGAGAAA	0.254
CGCCGAAG	-0.282
TATGTCGA	0.132
CTGGGATA	0.0899
CCGTTACG	0.0216
ATTGCGGC	-0.0648
ACCGTAAT	0.226
CTTGGAAC	-0.0814

Sequence	binding signal [E-score]
AAGGAATT	0.00323
AATGGGAC	-0.158
TCGGAAAA	0.0392
CAAACTTC	-0.0911
TCGTCCCA	-0.212
GCGACGCA	-0.00293
AGTATATC	0.221
GAGAAACA	-0.00971
AATTTCGT	0.244
AGTCCATC	-0.0975
CACGCGAA	-0.0277
AACGACAC	0.132
ATGCCCAA	-0.124
GACTTTAA	-0.0448
CTCCAATA	-0.0877
AATATCGC	-0.0495
ATGACGTA	0.0701
GTCAATAA	0.189
ATAACGTA	0.0662
GTCCTCCA	-0.327
GGTGAAGA	-0.0454
AGCCCCCG	-0.428
TAGCGTAA	0.144
AGGTTTCG	-0.0879
AGTCACTC	-0.0982

Sequence	binding signal [E-score]
ACTAAGAG	0.0623
GACGACCA	-0.222
ACTATCTA	0.397
CCCAACGC	-0.383
TGAATTAA	0.172
CACCACAC	-0.0674
TCCCATCA	0.00399
GCCCAAAC	-0.242
AGGGATTA	-0.121
GATGTCTA	0.0895
GAAGGACA	-0.186
GTGCGCCA	-0.323
CAGGGCGG	-0.249
ACATGACA	0.0938
GCCGCAGC	-0.363
CAGGTTGG	-0.0917
TGTTTCAA	0.00567
ATTTAGTC	0.104
CGAACACG	-0.162
GATAAGGC	-0.0522
CGATGATA	0.198
GACTACAC	0.0505
CAATGTTC	0.0131
CTAGAACA	0.146
CTCTCGGC	-0.188

Sequence	binding signal [E-score]
AGATTATC	0.263
CTTGGGTC	-0.189
ATCATGTC	0.00173
ACCCTTGC	-0.199
GCCTCTCC	-0.216
AGTGGCTG	-0.0481
GCAGTCAA	-0.155
TCCACCAA	-0.0927
AAGTAGGA	0.119
CGGCTTAC	-0.19
AGCTTTTG	0.043
AGACGTCT	0.121
ATAGCGAG	-0.0541
ACTATAAA	0.341
AACCTGGA	-0.158
CTGTCGTC	-0.262
CCCATTTA	0.0192
CGGGAGTC	-0.207
TACCAAGA	0.0552
AGTTTGTC	0.0187
TACTCAAA	0.0977
AAACTACA	0.408
CGAGACAA	0.0302
ACACATTA	0.207
CCCGCATC	-0.367

Sequence	binding signal [E-score]
ATGTTGGG	0.0372
CATGATCG	-0.03
CAAAACTC	0.0709
CAAATTGG	-0.14
AATTGTAT	0.294
CAGTTGCC	-0.231
GATCCATC	-0.00519
GCCACAAC	-0.107
CAAGAATC	0.0327
AGCTCAGC	-0.249
ATACAATC	0.192
CGGGTCGC	-0.26
GAGGTGAC	-0.277
GGAGTCAC	-0.162
ATGACGAG	-0.0997
ATTAGTCA	0.27
CATTCCGC	-0.201
CCATGTCA	-0.00926
TCGTAAAA	0.208
AGACGCAG	-0.117
TGACTAAA	0.0431
CTTTCGCC	-0.163
CGAGCCTC	-0.29
AATAGGGT	-0.0637
GTTACCCA	0.166

Sequence	binding signal [E-score]
ACGACGTA	-0.011
CTTCACTC	-0.109
CCATTGAG	0.0196
AATTCCGT	-0.114
CATCGATG	-0.0477
CTCGGCCC	-0.327
GAACGGGC	-0.23
AGAAATGA	0.0467
AAATAAAC	0.215
TAAAAAAA	0.216
AGAGCGAC	-0.238
AGCGTGGC	-0.207
GACATATC	0.0777
ACCGTCCG	0.00695
ACTAATCA	0.154
GTTAACGA	0.241
AACTAGGT	0.361
CGAAGGTC	-0.263
GCGTTAAA	-0.179
CCTCATGC	-0.245
CACGCATA	-0.0673
AAGAGGGA	-0.294
AGTGAGCC	-0.174
AATGATAT	0.255
GTCGACGA	-0.144

Sequence	binding signal [E-score]
AGCAATAG	0.25
ATGTGGAG	0.0655
AACCGGGT	-0.14
AGCCCGCC	-0.368
AACCTAAC	0.0219
AAATCGAT	0.0901
GTAGGTAA	0.314
AGCGCCGG	-0.232
TACCGCGA	0.126
CCGATTGC	0.0643
CAATATCC	0.125
CGTGTGAC	-0.115
ACCCAGAG	-0.24
CCGTCTAA	-0.0301
ACGTGCTA	0.0361
CAGCTCGG	-0.00356
GCCCGCAA	-0.263
AGCCTGGC	-0.364
AAATGAAA	0.167
ACCAGCGT	-0.18
CTCTGTAA	0.13
AGCGATCG	-0.243
AGGTAAGA	0.0529
AATATTAT	0.208
CCTCTTAC	-0.169

Sequence	binding signal [E-score]
CTGTACGA	0.139
CTCATCCA	0.013
AAGCTGTC	-0.105
TATAAAGA	0.124
AGATCTAG	0.167
GGAGTAGA	0.0421
GCTAGAGA	0.0153
AGTCGATA	0.178
GCAGAGTA	-0.152
CGGTAATA	0.372
AACAGGCC	-0.11
GATACATA	0.388
GCCAGGCA	-0.269
CCAACTCA	-0.106
ACAATCAC	0.118
ATAAGCTG	-0.0404
ACAAGTAC	0.196
TCAGAACA	0.0757
ACCATCTA	0.351
